Article PMC6796939
Results are given in words; binding and its absence hold for the method and conditions named. Binding seen in cells or lysates may run through a third protein. Some binding calls cover weakened binding; strength is not graded here. Sequences can lack the tags named with a protein.

What was measured:
Assay in all cases: co-IP; S2 cells co-transfected with tagged constructs; lysed in NP-40 buffer (50 mM Tris-Cl pH 8.0, 0.1 M NaCl, 1% NP-40, 10% glycerol, 1.5 mM EDTA) at 4 °C; primary antibody (anti-V5, anti-HA, anti-Flag) 2 h, protein A/G 1 h; western blot; some panels with or without Hh (Hh plasmid and Hh conditioned medium), some with dsRNA against ptc 5'UTR to knock down endogenous Ptc
[1] = target: T1, V5-tagged Ptc (PtcWT-V5) (Drosophila) (UniProt P18502)
T1 sequence: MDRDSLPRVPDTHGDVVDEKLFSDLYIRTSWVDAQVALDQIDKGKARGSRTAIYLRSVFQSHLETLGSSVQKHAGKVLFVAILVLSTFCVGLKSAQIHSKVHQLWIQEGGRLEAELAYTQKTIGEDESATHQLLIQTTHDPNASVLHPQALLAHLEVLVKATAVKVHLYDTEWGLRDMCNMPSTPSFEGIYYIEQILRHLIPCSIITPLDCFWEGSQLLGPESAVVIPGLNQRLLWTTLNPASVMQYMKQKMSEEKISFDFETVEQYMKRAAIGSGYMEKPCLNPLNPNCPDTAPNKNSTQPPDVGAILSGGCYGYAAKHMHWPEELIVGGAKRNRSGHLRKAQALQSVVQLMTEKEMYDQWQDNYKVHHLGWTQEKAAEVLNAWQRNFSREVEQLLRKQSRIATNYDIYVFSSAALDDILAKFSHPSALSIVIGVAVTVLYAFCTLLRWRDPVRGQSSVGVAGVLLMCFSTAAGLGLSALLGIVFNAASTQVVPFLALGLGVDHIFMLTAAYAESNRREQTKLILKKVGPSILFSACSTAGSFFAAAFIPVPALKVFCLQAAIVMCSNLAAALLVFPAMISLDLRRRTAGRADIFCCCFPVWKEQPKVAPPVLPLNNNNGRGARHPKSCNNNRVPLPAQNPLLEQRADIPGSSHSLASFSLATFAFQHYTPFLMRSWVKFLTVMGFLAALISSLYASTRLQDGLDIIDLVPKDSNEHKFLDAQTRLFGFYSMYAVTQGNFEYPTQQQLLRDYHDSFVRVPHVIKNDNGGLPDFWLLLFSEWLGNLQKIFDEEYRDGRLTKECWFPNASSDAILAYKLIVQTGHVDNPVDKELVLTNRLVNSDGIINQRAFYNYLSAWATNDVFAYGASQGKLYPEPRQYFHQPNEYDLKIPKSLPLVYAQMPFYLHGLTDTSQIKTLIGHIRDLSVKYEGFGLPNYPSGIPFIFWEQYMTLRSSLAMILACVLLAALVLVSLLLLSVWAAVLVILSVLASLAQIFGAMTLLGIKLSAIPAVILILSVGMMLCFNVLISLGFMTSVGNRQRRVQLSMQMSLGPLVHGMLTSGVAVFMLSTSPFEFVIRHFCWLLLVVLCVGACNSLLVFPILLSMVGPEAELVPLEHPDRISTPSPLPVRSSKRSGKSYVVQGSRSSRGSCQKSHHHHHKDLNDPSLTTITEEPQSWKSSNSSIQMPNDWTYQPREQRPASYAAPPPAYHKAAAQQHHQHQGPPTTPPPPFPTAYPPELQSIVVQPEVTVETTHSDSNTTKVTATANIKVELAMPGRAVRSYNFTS

[2] = target: T2, membrane-tethered Ptc-C4 (Myrflg-Ptc-C4-V5) (Drosophila) (UniProt P18502)
T2 sequence: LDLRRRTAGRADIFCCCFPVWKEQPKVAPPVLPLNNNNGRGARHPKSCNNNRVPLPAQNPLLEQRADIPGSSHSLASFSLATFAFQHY

PtcWT-6xmyc (Drosophila) = target: T3, PtcWT-6xmyc (Drosophila) (UniProt P18502)
T3 sequence: T1 sequence

- binding [1]: binds
- binding [2]: binds
- binding (PtcWT-6xmyc (Drosophila)): binds
Substance: HA tagged PKAc (3XHA-PKAc) (from UniProt P12370 1-353) (enzyme)
